Among all 310,000 compounds or so, about 2,200 (0.71%) showed an effect of 50% or more. The effect is printed as a negative number. The list shows a part of the results.
The molecules below were run against human ether-à-go-go-related gene (hERG) potassium channel (human, UniProt Q12809) (assay: primary screen, population patch clamp on CHO cells stably expressing hERG).
human ether-à-go-go-related gene (hERG) potassium channel, sequence (Q12809 whole entry, looked up): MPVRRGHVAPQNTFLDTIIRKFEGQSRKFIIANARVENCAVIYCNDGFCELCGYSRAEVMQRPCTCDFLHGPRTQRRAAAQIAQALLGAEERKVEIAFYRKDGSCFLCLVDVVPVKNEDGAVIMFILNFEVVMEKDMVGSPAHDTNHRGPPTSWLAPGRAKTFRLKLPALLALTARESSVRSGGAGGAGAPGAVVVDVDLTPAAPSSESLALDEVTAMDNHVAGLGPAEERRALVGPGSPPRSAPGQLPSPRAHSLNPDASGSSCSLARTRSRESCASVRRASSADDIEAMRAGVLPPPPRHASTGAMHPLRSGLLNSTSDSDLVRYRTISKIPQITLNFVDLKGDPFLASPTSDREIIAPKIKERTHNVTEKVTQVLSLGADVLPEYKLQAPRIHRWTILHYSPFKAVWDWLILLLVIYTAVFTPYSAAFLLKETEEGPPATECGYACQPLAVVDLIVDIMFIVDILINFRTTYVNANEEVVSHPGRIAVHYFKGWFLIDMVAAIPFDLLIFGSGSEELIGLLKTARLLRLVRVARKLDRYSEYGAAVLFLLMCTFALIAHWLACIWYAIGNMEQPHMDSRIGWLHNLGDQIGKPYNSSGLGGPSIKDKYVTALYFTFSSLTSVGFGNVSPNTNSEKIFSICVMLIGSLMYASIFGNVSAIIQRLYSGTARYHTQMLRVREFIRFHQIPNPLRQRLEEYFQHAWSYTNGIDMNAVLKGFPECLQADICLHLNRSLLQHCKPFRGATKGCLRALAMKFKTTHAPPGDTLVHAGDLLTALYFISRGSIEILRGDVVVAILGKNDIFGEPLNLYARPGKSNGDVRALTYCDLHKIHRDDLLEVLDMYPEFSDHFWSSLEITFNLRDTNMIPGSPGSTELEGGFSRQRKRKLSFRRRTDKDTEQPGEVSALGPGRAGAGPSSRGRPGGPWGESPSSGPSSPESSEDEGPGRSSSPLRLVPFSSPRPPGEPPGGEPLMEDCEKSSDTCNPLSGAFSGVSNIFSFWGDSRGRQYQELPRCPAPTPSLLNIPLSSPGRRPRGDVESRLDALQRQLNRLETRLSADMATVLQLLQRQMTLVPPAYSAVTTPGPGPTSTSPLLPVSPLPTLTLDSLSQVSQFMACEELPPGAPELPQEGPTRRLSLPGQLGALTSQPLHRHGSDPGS

Structure (SMILES)	hERG current change (%, negative = inhibition) at 1uM
O=C1c2ccc3c4c(ccc(c24)C(=O)N1c1cccc(O)c1)C(=O)N(c1cccc(O)c1)C3=O	5.14%
O=C(NCCN1CCN(c2ccccc2)CC1)Nc1cccc(Br)c1	-9.25%
CSc1nc2n(n1)C(c1ccccn1)C1=C(CC(C)(C)CC1=O)N2 (centres unmarked)	6.46%
Cc1ccc(C)c(OCC(O)CN2C(C)CCCC2C)c1.Cl (centres unmarked)	-34.9%
Cc1cccc2c(N=NC(=O)C(C)n3cnc4ccccc4c3=O)c(O)[nH]c12 (centres unmarked)	-2.25%
O=S(=O)(NCC(c1ccccc1)N1CCC(O)CC1)c1ccc(Cl)cc1 (centres unmarked)	3.21%
O=c1nc(N2CCCCC2)nc(Nc2ccccc2)[nH]1	3.72%
Cc1cc(C)cc(N(C(=O)c2snc(C(N)=O)c2N)C(C(=O)NCC2CCCO2)c2cccs2)c1 (centres unmarked)	0.0583%
COc1ccc(CCNC(=O)C(=O)NCC2OCCN2S(=O)(=O)c2ccc(OC)c(OC)c2)cc1OC (centres unmarked)	7.99%
O=C(N/N=C/c1cn[nH]c1-c1ccccc1)c1ccco1	12%
COc1ccc(CCn2c(=N)c(C(=O)NC3CCCC3)cc3c(=O)n4ccccc4nc32)cc1	-89.2%
OCCC1CN(Cc2cccn2-c2ccccn2)CCN1Cc1ccccc1 (centres unmarked)	-61.4%
COc1cccc(NC(=O)N2CCCC2C(=O)NCc2ccco2)c1 (centres unmarked)	9.13%
O=C(NNc1ncnc2c1cnn2-c1ccccc1)c1cccs1	8.34%
COc1ccccc1-n1c(SCC(=O)N(C)C2CCS(=O)(=O)C2)nc2ccccc2c1=O (centres unmarked)	7.61%
COC(=O)c1ccc(NC(=O)CNC(=O)c2sc3ccccc3c2Cl)cc1	7.15%
O=C(COc1ccccc1)NCc1ccc(-n2cccc2)cc1	13.1%
CC(C)C(=O)Nc1nc2c(c(=O)[nH]1)CCCC2	14.6%
CC1CCCC(NC(=O)c2cccc(S(=O)(=O)N3CCN(c4ccccc4)CC3)c2)C1C (centres unmarked)	11.5%
O=C(c1ccc(S(=O)(=O)N2CCCCC2)cc1)N1CCCc2ccccc21	7.58%
Cc1cc(C(=O)CSc2nnc(N)s2)c(C)n1CCc1ccc(F)cc1	6.05%
COC(=O)c1ccc(OS(=O)(=O)c2ccc(NC(C)=O)cc2)cc1	15.8%
CC(C)c1ccc(C(=O)NNC(=O)c2ccncc2)cc1	23.4%

Structure (SMILES)	hERG current change (%, negative = inhibition) at 1uM
COc1cccc(C(=O)NNC(=O)C(=O)Nc2ccc(OC)cc2OC)c1	11.3%
O=C(C1CCCN1C(=O)c1cccs1)N1CCN(Cc2ccc3c(c2)OCO3)CC1 (centres unmarked)	2.52%
Cc1ccc(NC(=O)C2CCN(S(=O)(=O)c3cccc(C(F)(F)F)c3)CC2)nc1	7.6%
C=CCOC(=O)C1=C(C)NC(SCC(N)=O)=C(C#N)C1c1ccc(C)cc1 (centres unmarked)	9.63%
COc1ccccc1N1CCN(C(=O)c2oc3c(c2C)C(=O)CC(C)(C)C3)CC1	6.43%
COc1ccc(C(=O)N(C)CCCC2CCCC2)cc1OC1CCN(C(C)=O)CC1	-0.899%
NS(=O)(=O)c1ccc(CCNC(=O)c2cnccn2)cc1	12.7%
O=C(Nc1ccc(Br)cc1)c1cccc(-n2cnnn2)c1	10.7%
COc1ccc(C(=O)NNC(=O)C2=NN(c3ccccc3)C(=O)CC2)cc1	16.1%
Cc1cccc(-c2nc(CSCC(=O)N3CCN(c4ccccn4)CC3)c(C)o2)c1	-12.1%
COc1ccc(NC(=O)N2CCCc3ccccc32)c(OC)c1	0.623%
CCn1c(SCC(=O)N/N=C/C=C/c2ccccc2[N+](=O)[O-])nnc1-c1ccc(Cl)cc1	4.52%
Cc1cc2cc3c(cc2nc1SCC(=O)O)CCC3	6.91%
Cc1ccc(OCc2nnc(NC(=O)OCC(C)C)s2)c(C)c1	20.1%
CCC1CCC(NC(=O)Nc2cccc(OC)c2)CC1 (centres unmarked)	5.22%
CCCCn1nnnc1NCc1ccc(OC)c(OC)c1	13.9%
CCN(CC(=O)NC1CCS(=O)(=O)C1)c1ccc(S(C)(=O)=O)cc1[N+](=O)[O-] (centres unmarked)	-2.39%
C[C@H](NC(=O)c1[nH]cnc1C(=O)Nc1ccccc1)C(=O)OC(C)(C)C	12.6%
COC(=O)c1c(NC(=O)C2C3CCC(C3)C2C(=O)O)sc2c1CCCCC2 (centres unmarked)	13%
O=C(NNc1nc2c(F)cc(F)cc2s1)c1ccccc1	11.4%
Cc1ccccc1OCCSc1nc2ncnc(N)c2[nH]1	13.7%
COc1cccc2sc(Nc3nnc(-c4cccs4)o3)nc12	16.7%
CCC(C(=O)NCCCN1CCCCCC1)n1nc(C)c2sc3ccccc3c2c1=O (centres unmarked)	17.7%

Structure (SMILES)	hERG current change (%, negative = inhibition) at 1uM
O=C(NCC1CCCO1)c1cc(S(=O)(=O)N2CCCC2)c(Cl)cc1Cl (centres unmarked)	18.4%
COc1cccc(C(=O)NNC(=O)c2cccc(F)c2)c1	12.7%
CC[n+]1c(/C=C/N(C)c2ccccc2)oc2ccccc21.O=S(=O)([O-])CCO	12%
CC(C)CCn1cnc2c1c(=O)n(C)c(=O)n2C	-3.28%
Cc1cccc(-n2ccnc2SCC(=O)Nc2cc(C)on2)c1	4.85%
CN1CCN(C2=CC(=O)OC23CCCCC3)CC1	15.6%
O=c1c2cnn(-c3ccc(F)cc3)c2ncn1Cc1ccc(F)cc1	2.93%
O=C1CC(c2cc3c(cc2Br)OCO3)C2=C(CCCC2=O)N1 (centres unmarked)	6.16%
NC(=O)C1CCN(C(=O)CC2(CC(=O)O)CCCCC2)CC1	16.1%
CC1Cc2ccccc2N1C(=O)CSCC(=O)O (centres unmarked)	11.4%
Cc1nnc(Nc2ccc3c(c2)ncn3C)c2ccccc12	8.25%
COc1cc(/C=C2/C(=O)NN(c3cccc(Cl)c3)C2=O)cc(Br)c1O	14.4%
COc1ccccc1CNC(=O)[C@H](C)NC(=O)C1CCN(C(=O)[C@@H](N)Cc2ccccc2)CC1	-0.366%
COc1cc(OC)c(C2=Nc3ccc(Br)cc3C(c3ccccc3)N2CC(=O)NN)cc1OC (centres unmarked)	2.52%
CC(C(=O)NC1CCCC1)N(c1ccc(Oc2ccccc2)cc1)S(C)(=O)=O (centres unmarked)	-7.27%
CCCCNC(=S)NNc1c(Cl)cc(Cl)cc1Cl	5.98%
CN(N=Nc1cccc([N+](=O)[O-])c1)c1ccccc1	-4.89%
COc1cccc(N=C(N)N=C(N)N)c1	15.9%
CC(C)(C)OC(=O)NOCC(=O)N(CC(=O)c1ccccc1)Cc1ccccc1	13%
O=C(Nc1ccccc1)Oc1cccc(Br)c1	11%
N#C/C(=C\Nc1ccccn1)S(=O)(=O)c1ccc(Cl)cc1	14.4%
Cc1ccc(OCCNC(=O)C2CC(=O)N(Cc3ccccc3)C2)cc1 (centres unmarked)	-0.366%
Cc1ccc2c(cnn2C(=O)CCC(=O)NCc2ccccc2Cl)c1	13.9%

Structure (SMILES)	hERG current change (%, negative = inhibition) at 1uM
Cc1ccc(C)c(N2CCN(C(=O)CCCn3c(=S)[nH]c4cc5c(cc4c3=O)OCO5)CC2)c1	3.35%
CCCCNC(=O)COCc1cc(-c2ccc3c(c2)OCO3)on1	8.1%
CS(=O)(=O)NCCSCc1c(Cl)cccc1Cl	6.38%
Cc1ccc2c(c1)N(C(=O)CCC(=O)O)CCO2	5.28%
CC1CCCN(Cc2nc3c(c(=O)n(C)c(=O)n3C)n2CC(=O)c2ccccc2)C1 (centres unmarked)	4.21%
CCCCCC(C)n1[nH]c(=O)cc1N (centres unmarked)	10.1%
Cc1ccc(-n2nc(C)c3c(C)c(CCC(=O)O)c(C)nc32)cc1C	17.5%
O=C(NC(n1ccc(=O)[nH]c1=O)C(Cl)(Cl)Cl)C12CC3CC(CC(C3)C1)C2 (centres unmarked)	-0.0313%
CCc1cccc(NC(=O)C2CC2c2ccccc2)c1 (centres unmarked)	13.8%
O=S(=O)(NCc1cccnc1)c1cccs1	11.1%
CC(C)c1cc(=O)n2[nH]c(SCc3ccccc3)nc2n1	13.8%
CC(=O)c1cn(-c2ccc(Cl)cc2)c(=O)n(Cc2ccc(Br)cc2)c1=O	10.9%
Cc1ccc(C)c(N2CCN(C(=O)Nc3ccc4c(c3)N(C)C(=O)CS4)CC2)c1	-4.26%
CCOC(=O)CC(NS(=O)(=O)c1ccc2[nH]cc(C(=O)O)c(=O)c2c1)c1ccc(OCC)c(OC)c1 (centres unmarked)	2.74%
CN(Cc1ccccc1)C(=O)c1[nH]cnc1C(=O)Nc1nccs1	7.25%
Cc1ccc(Sc2ccc(C(=O)N(C)C)cc2[N+](=O)[O-])cc1	-13.8%
Cc1cccc(OCC(O)CN2CCc3ccccc3C2)c1.Cl (centres unmarked)	-0.945%
COc1ccc2[nH]c(C)c(CCNCc3cn(C)c4ccccc34)c2c1.O=C(O)C(=O)O	7.22%
CC(C)(C)OC(=O)CNC(=O)c1nc[nH]c1C(=O)NCc1ccccc1	-1.26%
C=CCn1c(SCc2c(C)noc2C)nnc1C1COc2ccccc2O1 (centres unmarked)	8.71%
